Measured values as given in the supplement of paper PMC10338343.
± gives the standard deviation. The entries are a selection whose mix differs from that of the whole data set.

System: MIWI (PIWIL1) piRISC loaded with piRNA #1 (30 nt)
Assay: pre-steady-state target cleavage rate (min^-1); MIWI and MILI are mouse PIWI proteins and EfPiwi is from a freshwater sponge; tags in brackets are library labels; higher = faster piRNA-guided slicing of the target
Conditions: guide: piRNA #1 5'p-UGAGGUAGUAGGUUGUAUAGUAUCCAGAGG; auxiliary factor: 500 nM mouse GTSF1
Method in brief: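 The method was Cleave-'n-Seq, in which uncleaved targets from a transcribed, DNA-blocked target RNA library were sequenced after exposure to active affinity-purified piRISC carrying one synthetic guide, with or without GTSF1 partner protein. Reactions contained 0.1 nM library, 1 nM piRISC and, where present, 500 nM GTSF1 in HEPES–potassium acetate buffer at 33 °C for 0–8 or 0–960 min. Reads were normalised to depth and to weakly complementary targets, three trials were pooled, and k3 was capped at 0.0001 min^-1. The pre-steady-state cleavage rate came from a burst-and-steady-state fit.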

Compared with CCUCUGGAUACUAUACAACACUACUACCUCA, CCUCUGGAUACUAUACAACCUAGCUACCUCA is higher in “pre-steady-state target cleavage rate” value: 0.00935 ± 0.0044 for the first, 0.187 ± 0.019 for the second.

Going from GGAGACCUAUCUGUACAACCUACUACCUCA to CCUCUGGAUACUAUACAACCUAACUACCUCA, the “pre-steady-state target cleavage rate” value falls from 0.249 ± 0.025 to 0.0333 ± 0.0068.

Compared with GGAGACGAUACUAUACAAGCUACUACGUCA, GGAGUGGAUACUAUACAACCUACAACCUCA is lower in “pre-steady-state target cleavage rate” value: 0.877 ± 0.095 for the first, 0.314 ± 0.037 for the second.

Going from GGAGUGGAUACUAUACAACCUACGACCUCA to GGAGACCAUACUAUACUACCUAGUACCUCA, the “pre-steady-state target cleavage rate” value falls from 0.4 ± 0.042 to 0.259 ± 0.027.

First: GGAGACCUUACUAUACAUCCUUCUACCUCA
Second: GGAGUGGAUACUAUACAUCCUACUACCACA
The “pre-steady-state target cleavage rate” value of the first is lower: 0.163 ± 0.015 for the first, 0.437 ± 0.032 for the second.

Compared with CCUCUGGAUACUAUACAACCUUGUACCUCA, CCACUGGAUACUAUACAACCAACUACCUCA is higher in “pre-steady-state target cleavage rate” value: 0.0534 ± 0.012 for the first, 0.189 ± 0.021 for the second.

Compared with GGAGACCUAUGUAUACAACCUACCUACCUCA, GGAGACCUAUGAUUAAAACCUACUACCUCA is lower in “pre-steady-state target cleavage rate” value: 0.0235 ± 0.0043 for the first, less than 0.0001 for the second.

Going from GGAGACCAUACUAUACAACCUACUACAUCA to GGAGACCUAACUAUACAACCUACUACCUA, the “pre-steady-state target cleavage rate” value falls from 1.35 ± 0.072 to 0.622 ± 0.065.

First: GCACUGGAUACUAUACAAGCUACUACCUCA
Second: CCUCUGGAUAGUAUACAACCUAGUACCUCA
The “pre-steady-state target cleavage rate” value of the first is higher: 1.32 ± 0.064 for the first, 0.312 ± 0.064 for the second.

First: GGAGAGGAUACUAUACAACCUACAAGCUCA
Second: GGACUGCGAUACUAUACAACCUACUACCUCA
The “pre-steady-state target cleavage rate” value of the first is lower: 0.0618 ± 0.018 for the first, 1.79 ± 0.13 for the second.

Going from GGAGACGAUACUAUUACAACCUACUACCUCA to GGAGACCAUACUAUUCAACCUACUACGUCA, the “pre-steady-state target cleavage rate” value falls from 1.45 ± 0.1 to 0.69 ± 0.044.

GCUCUGGAUACUAUACAUACCUACUACCUCA and GGAGACCUAUGAAUACAACCUACUAACUCA are within error of each other in “pre-steady-state target cleavage rate” value: 0.00437 ± 0.0036 for the first, 0.00651 ± 0.0035 for the second.

GGAGUGGAUACUAUACAAACUACUACCUCA and GGAGACGAUACUAUACAAGCUACAACCUCA are within error of each other in “pre-steady-state target cleavage rate” value: 0.801 ± 0.034 for the first, 0.856 ± 0.048 for the second.

First: GGAGUGGAUACUAUACAACCUACAUGCUCA
Second: GGUCUGGAUACUAUACAACGUACUACCUCA
The “pre-steady-state target cleavage rate” value of the first is lower: 0.00675 ± 0.0024 for the first, 1.07 ± 0.062 for the second.

Going from GGUCUGGAUACUAUACUAGCUACUACCUCA to GGACUGGAUACUUUACAACCUAGUACCUCA, the “pre-steady-state target cleavage rate” value falls from 0.543 ± 0.04 to 0.218 ± 0.039.

Compared with GGAGACCAUACUAUACUACCUACUAGCUCA, GGAGACGAUACUAUACAACCAACUUCCUCA is lower in “pre-steady-state target cleavage rate” value: 0.35 ± 0.032 for the first, 0.0447 ± 0.0069 for the second.

Compared with GGACAGGAUACUAUACUACCUACUACCUCA, CCUCUGGAUAUUAUACAACCUACUACCUCA is higher in “pre-steady-state target cleavage rate” value: 1.45 ± 0.1 for the first, 2.15 ± 0.12 for the second.

Compared with GGAGAGGAAACUUUACAACCUACUACCUCA, GGUCUGGAUACUAUAGAACCAACUACCUCA is lower in “pre-steady-state target cleavage rate” value: 1.46 ± 0.1 for the first, 0.0267 ± 0.0039 for the second.

Going from GGAGACCUAUCUUUUCAACCUACUACCUCA to GCUCUGGUUACUAUACAACCUUCUACCUCA, the “pre-steady-state target cleavage rate” value rises from 0.0982 ± 0.032 to 0.701 ± 0.037.

First: GCUCUCGAUACUAUACAACCUACUACCACA
Second: CCUCUGGAUACUAUACAACCUACGUACCUCA
The “pre-steady-state target cleavage rate” value of the first is higher: 2.17 ± 0.15 for the first, 0.422 ± 0.055 for the second.
